# In all, about 33,000 sequences were measured (“E-score (-0.5 to 0.5)”: median about -0.054, highest 2% from about 0.35 on). Some of the results follow.
# Target: T1, Stb5 (UniProt P38699)
# T1 sequence: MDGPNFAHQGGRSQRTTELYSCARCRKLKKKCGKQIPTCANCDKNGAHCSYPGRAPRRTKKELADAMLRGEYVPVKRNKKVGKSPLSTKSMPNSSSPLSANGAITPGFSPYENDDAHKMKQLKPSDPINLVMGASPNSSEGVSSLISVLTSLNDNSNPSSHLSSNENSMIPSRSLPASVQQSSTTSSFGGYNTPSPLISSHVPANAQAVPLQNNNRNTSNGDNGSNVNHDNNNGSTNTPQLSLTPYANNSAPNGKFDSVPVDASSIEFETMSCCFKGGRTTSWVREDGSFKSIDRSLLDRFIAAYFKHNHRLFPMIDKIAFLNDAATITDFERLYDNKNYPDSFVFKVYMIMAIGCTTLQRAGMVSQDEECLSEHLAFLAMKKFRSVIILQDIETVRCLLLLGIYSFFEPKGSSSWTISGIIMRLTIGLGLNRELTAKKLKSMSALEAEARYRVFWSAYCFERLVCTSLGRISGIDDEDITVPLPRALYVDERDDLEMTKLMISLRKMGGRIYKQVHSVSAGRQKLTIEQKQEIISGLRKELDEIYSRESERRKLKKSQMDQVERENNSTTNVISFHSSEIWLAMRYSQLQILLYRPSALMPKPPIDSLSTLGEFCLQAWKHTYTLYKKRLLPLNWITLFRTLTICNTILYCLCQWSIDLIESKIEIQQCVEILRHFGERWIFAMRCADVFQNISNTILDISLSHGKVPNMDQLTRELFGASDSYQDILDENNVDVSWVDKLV
# Experiment: PBM E-score (8-mer binding enrichment) (E-score (-0.5 to 0.5)); higher = stronger / more preferred TF binding; most listed sequences are background and not binding sites
# Settings: protein concentration: 200 nM; construct: GST-full length
# How it was run: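 Bound GST-tagged yeast transcription factors, applied at about 100-200 nM to double-stranded universal all-10-mer Agilent arrays, were detected with fluorescent anti-GST. Scans were normalised with masliner. A modified Wilcoxon-Mann-Whitney statistic, the E-score, was assigned to each ungapped eight-base word pooled with its reverse complement by the Universal PBM Analysis Suite.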
row,Sequence,PBM E-score
1,GAGGCTAA,-0.0247
2,CGGCAGGA,0.134
3,CGGTGGCC,0.157
4,ACGCTAGT,0.156
5,ACTGAGTG,-0.137
6,GAAGTGTC,-0.0684
7,AGGTTTCA,0.058
8,ACTAAGCA,-0.244
9,CCTGCTGC,-0.209
10,AATCACTC,-0.228
11,CATTCTAA,-0.228
12,ATCAGAGA,-0.172
13,ACGCACCA,-0.0108
14,TACTATCA,-0.0737
15,GTTTCGCA,-0.0435
16,CATATACC,0.137
17,GGGGCAGA,0.0569
18,ACCCGCGT,0.0669
19,CGATAGTA,0.114
20,CTGTTTGC,-0.278
21,CTACATGA,-0.039
22,CGATTGAA,0.0538
23,TAGCGCGA,-0.112
24,AGGCCACG,-0.104
25,AGCGTTAA,0.0928

row,Sequence,PBM E-score
1,ACGTGTTA,-0.183
2,AGATAGCA,-0.115
3,AGAAGGAA,0.0725
4,ATTGTTCA,-0.107
5,GACTTTAC,0.0729
6,CTAGGCGA,-0.0634
7,ACGGGAAC,0.205
8,ACCGAGAG,0.0364
9,AACGGACC,0.38
10,GCCGCTTA,0.258
11,CCGAAGAG,0.0938
12,GGGCGTGA,-0.171
13,TATACAAA,-0.0515
14,GTCGACAA,-0.0265
15,ACAAGTTC,-0.115
16,AGCTGTCG,-0.11
17,CCAATGAG,-0.201
18,CTGACGGC,0.157
19,AATTACGC,-0.194
20,AGGCAAAA,-0.0993
21,ATCACAGA,-0.0214
22,AGCCAGAT,-0.126
23,GGAACTAA,0.373
24,GCCACGAA,0.0246
25,ATACTTTC,-0.0748

row,Sequence,PBM E-score
1,ACTCTGTC,-0.117
2,GTCAGCAC,-0.045
3,CTTGATAA,0.00634
4,CGCTCGCA,0.0692
5,AAAACAGA,-0.186
6,ATATGTCC,0.406
7,ACCCCCAT,-0.27
8,CGTGGGAG,0.0265
9,CCGAACCC,0.111
10,CTTCCTAA,-0.116
11,CCGCACTA,0.205
12,TAATCCAA,-0.117
13,CCCGAGTA,0.227
14,CCCCAAAC,-0.226
15,ACTCGAAG,-0.0168
16,CCCTCTCA,-0.284
17,GAGTTGCC,0.0794
18,ACCCTTGA,-0.0281
19,ACAGTGTA,-0.314
20,ACAATGCG,-0.0154
21,AGTTGCGA,-0.222
22,ACCTGCAG,-0.343
23,AACTGTCA,-0.249
24,AGCTAGTC,-0.0527
25,CATCTCGC,0.0525

row,Sequence,PBM E-score
1,CCCTCGAG,-0.339
2,CCTATGAG,-0.324
3,AAGACGTC,-0.271
4,AAAAACGC,0.118
5,AGATGACG,-0.226
6,AGAGCGAC,-0.0175
7,GCCCTAGC,-0.0132
8,CATATTTA,0.0934
9,CCGCGGTC,0.32
10,GCGGTCAA,0.241
11,AAGATAAT,-0.0346
12,GTCTAGCA,0.0804
13,TTTGCAAA,-0.154
14,TCACGTCA,-0.0784
15,GAAGTGCA,-0.201
16,AGTGGGGC,-0.219
17,TAAAGTGA,-0.0387
18,ACTCCAAG,-0.0735
19,ACGGTAAA,0.142
20,ACGTCCAC,-0.156
21,AGCAGTCG,0.0526
22,AAAGGTAT,0.0224
23,AGCCACCC,-0.0205
24,ACCGAAAT,0.223
25,AGCATAAA,0.0761

row,Sequence,PBM E-score
1,GAACCAAA,-0.212
2,CAACTAAG,-0.0736
3,GCTGCGCC,-0.0775
4,CAAGTCTC,-0.223
5,CAGCTGCA,-0.111
6,TTACGTAA,-0.263
7,AGCCCTTC,-0.213
8,TCTGGGCA,0.115
9,ACAAACAG,0.00671
10,AGCCGACT,0.149
11,CGCGCCGA,0.277
12,CCCGGCCA,0.182
13,GATAAGAA,-0.0257
14,TGAAGACA,-0.105
15,AGCCGTAC,-0.00301
16,CGAGCATC,-0.0291
17,AGAACGAA,-0.0966
18,GGTGCTCA,0.0877
19,CGGACCGC,0.298
20,AATCTAGA,-0.0895
21,AGAAGCAC,-0.0713
22,ATCTAACG,0.118
23,AGTAGGAC,-0.0741
24,ACGTTAAG,0.127
25,ACTGATAG,-0.269

row,Sequence,PBM E-score
1,TGCCACCA,-0.338
2,CGGATACC,0.0377
3,ACCTAAGC,-0.0629
4,CGTTCTCC,-0.133
5,AGATCAGA,-0.298
6,CGCTTAAC,0.0488
7,CAGACGAG,-0.199
8,CCGCGCAG,0.248
9,CCGTATCG,0.154
10,CCGTCGTC,0.161
11,ATTCGCGC,-0.0553
12,GGGCCACA,-0.0815
13,ATTGAATG,-0.126
14,GACCGATC,0.323
15,AAGGTCCA,-0.171
16,GTGTTGAA,-0.206
17,CATAGGTC,0.0421
18,GGGCCCCA,-0.0142
19,AGAAGCCC,0.197
20,CGCAGACG,0.00145
21,AGTCCTCA,0.0201
22,ATCCTGCA,-0.17
23,CAAGTACG,-0.21
24,AGATACCG,0.331
25,ACGTAGGC,-0.103

row,Sequence,PBM E-score
1,ACCTTAGG,-0.0614
2,GGCGTTAC,0.248
3,ACGAAGGG,-0.187
4,TACTTTCA,-0.124
5,CCGTCACA,0.226
6,CAATCGTC,-0.093
7,CTTACATA,0.0352
8,AACCTATC,-0.0635
9,AAAGCTCT,-0.161
10,AGCGGAGG,0.239
11,CTTGGCTC,-0.143
12,CCCCCTTA,-0.332
13,AGCTTGAC,-0.251
14,GAATCACA,0.174
15,CCCTACTC,0.0096
16,AGTGACAC,-0.0727
17,AATCTACA,-0.0744
18,AGTTAACC,0.0236
19,AGGAGCAT,-0.255
20,CGAGACGC,0.0341
21,AATACATT,-0.253
22,CGCATAGA,-0.0293
